Test results published in PubChem BioAssay AID504333 (National Center for Advancing Translational Sciences (NCATS), 2011).
About 16,000 (4.4%) of roughly 360,000 compounds were called active. The inconclusive results got no clear call from the source; some entries with a clear call stand among them for comparison. The call rests on the fitted dose curve; in most records, active means well fitted inhibition curve with a large enough effect; inconclusive means small, poorly fitted or top-dose-only effect; inactive means no such curve, though single readings can be large or run the other way. A potency beside an inconclusive call is a rough fit, not a confirmed value.

molecular target: Bromodomain adjacent to zinc finger domain protein 2B (Homo sapiens) (UniProt Q9UIF8); assay: qHTS Assay for Inhibitors of BAZ2B; details: AlphaScreen BAZ2B-H3K14Ac peptide displacement; activity change, negative = inhibition: at 114 µM (top of the series) unless noted; further: nearly all actives have a fitted effect of over 60% in size
Outline: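 AlphaScreen displacement of biotin-H3(5-23)K14Ac peptide (50 nM final) from BAZ2B (50 nM final) in PBS pH 7.4, 0.01% Tween-20; complex preformed 30 min RT, then compounds (top 110 uM) 30 min RT, beads 20 min dark.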
On the % scale 0 is the no-effect control and ±100 the full control effect; potency means the concentration at half of the fitted maximal effect; tags describe the fitted curve by direction and shape.

Sequence of UniProt Q9UIF8 (Q9UIF8 whole entry, looked up, the tested form may be a part): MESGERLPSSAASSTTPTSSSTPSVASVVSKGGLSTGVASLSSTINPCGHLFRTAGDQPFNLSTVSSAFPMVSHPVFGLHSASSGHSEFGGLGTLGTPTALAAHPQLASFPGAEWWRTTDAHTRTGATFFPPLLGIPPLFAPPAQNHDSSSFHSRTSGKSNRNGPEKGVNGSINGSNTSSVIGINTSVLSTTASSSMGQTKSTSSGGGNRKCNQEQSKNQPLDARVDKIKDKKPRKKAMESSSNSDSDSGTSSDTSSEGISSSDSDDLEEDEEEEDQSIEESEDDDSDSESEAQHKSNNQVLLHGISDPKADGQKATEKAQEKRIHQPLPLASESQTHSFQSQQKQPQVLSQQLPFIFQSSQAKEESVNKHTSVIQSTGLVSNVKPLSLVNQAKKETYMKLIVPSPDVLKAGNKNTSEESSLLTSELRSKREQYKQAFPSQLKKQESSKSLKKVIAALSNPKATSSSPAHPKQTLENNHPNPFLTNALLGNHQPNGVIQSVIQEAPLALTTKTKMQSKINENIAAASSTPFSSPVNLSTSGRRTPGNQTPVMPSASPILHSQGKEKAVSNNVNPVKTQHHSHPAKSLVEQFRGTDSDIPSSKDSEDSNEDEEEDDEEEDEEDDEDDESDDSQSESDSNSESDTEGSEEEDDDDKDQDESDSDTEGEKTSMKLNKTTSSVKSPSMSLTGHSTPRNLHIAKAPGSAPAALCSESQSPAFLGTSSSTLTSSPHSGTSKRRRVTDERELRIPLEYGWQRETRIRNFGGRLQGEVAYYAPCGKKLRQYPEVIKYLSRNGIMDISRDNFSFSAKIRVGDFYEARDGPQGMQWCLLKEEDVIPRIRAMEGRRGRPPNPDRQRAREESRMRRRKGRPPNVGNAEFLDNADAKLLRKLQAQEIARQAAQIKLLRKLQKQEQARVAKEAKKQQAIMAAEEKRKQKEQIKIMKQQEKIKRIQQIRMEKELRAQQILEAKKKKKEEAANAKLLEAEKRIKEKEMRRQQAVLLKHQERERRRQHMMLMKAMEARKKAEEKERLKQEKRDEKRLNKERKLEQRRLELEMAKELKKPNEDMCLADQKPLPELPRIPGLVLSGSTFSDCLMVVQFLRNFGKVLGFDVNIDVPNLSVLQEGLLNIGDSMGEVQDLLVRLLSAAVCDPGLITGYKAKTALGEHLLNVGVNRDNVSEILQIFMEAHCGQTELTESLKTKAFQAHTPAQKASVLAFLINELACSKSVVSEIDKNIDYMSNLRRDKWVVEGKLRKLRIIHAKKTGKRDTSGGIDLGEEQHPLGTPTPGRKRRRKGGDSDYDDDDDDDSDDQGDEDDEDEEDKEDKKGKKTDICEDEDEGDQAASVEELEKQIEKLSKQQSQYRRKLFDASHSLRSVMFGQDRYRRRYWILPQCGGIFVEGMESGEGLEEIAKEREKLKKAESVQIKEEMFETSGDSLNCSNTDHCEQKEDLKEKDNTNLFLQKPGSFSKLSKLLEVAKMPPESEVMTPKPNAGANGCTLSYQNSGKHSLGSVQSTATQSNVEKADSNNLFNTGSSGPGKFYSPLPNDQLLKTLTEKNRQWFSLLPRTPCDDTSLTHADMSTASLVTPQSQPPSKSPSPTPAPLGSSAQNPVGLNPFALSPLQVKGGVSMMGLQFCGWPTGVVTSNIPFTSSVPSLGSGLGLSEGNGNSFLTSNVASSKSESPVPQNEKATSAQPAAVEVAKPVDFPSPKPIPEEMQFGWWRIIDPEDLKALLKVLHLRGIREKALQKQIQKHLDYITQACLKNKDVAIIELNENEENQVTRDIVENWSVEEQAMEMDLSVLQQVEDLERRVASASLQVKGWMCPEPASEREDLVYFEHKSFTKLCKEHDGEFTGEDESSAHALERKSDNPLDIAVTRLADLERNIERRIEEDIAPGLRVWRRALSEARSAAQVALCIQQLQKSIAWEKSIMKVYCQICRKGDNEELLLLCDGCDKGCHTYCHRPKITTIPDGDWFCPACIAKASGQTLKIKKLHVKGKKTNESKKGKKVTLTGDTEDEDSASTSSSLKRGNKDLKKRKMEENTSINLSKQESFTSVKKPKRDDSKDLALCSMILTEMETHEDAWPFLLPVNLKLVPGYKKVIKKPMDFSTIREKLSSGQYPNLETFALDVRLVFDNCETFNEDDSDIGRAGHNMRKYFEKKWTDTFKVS

SMILES | Potency | activity change, negative = inhibition
O=C(Oc1ccccc1C(=S)N1CCOCC1)c1ccc([N+](=O)[O-])cc1[N+](=O)[O-] | inconclusive: 39.8 µM [inhibitor, full curve] | –
O=[N+]([O-])c1cccnc1N1CCN(c2ccccc2F)CC1 | inconclusive: 39.8 µM [inhibitor, partial curve] | –
CCc1sc(C(=O)Nc2ncccc2O)cc1C | active: 50.1 µM | –
COCCNC(=S)N(CCc1c(C)[nH]c2ccc(F)cc12)Cc1ccc(C)cc1 | inconclusive: 35.5 µM [inhibitor, partial curve] | –
CCOC(=O)CNc1c(-c2ccc(OC)cc2)nc2ccc(Cl)cn12 | inconclusive: 89.1 µM [inhibitor, single point] | –
CN(C)c1ccc(NC(=O)c2cnsn2)cc1 | – | inactive: -19.5%
Cc1cc(Cl)ccc1NC(=O)COC(=O)CCNS(=O)(=O)c1ccccc1 | – | inactive: 6%
O=C(Oc1c(Cl)cc(Cl)c2cccnc12)c1ccco1 | inconclusive: 89.1 µM [inhibitor, single point] | –
Cc1ccccc1CNC(=O)c1oc2c(c1C)-c1nn(Cc3ccc(Cl)cc3)cc1CC2 | – | inactive: -23.5%
COc1ccc(/C=N/Nc2nnc(Cc3ccc(OC)c(OC)c3)c(=O)[nH]2)cc1OC | inconclusive: 89.1 µM [inhibitor, single point] | –
CCOC(=O)N1CCC(N2C(=O)c3ccc(C(=O)Nc4ccc(OC)c(OC)c4)cc3C2=O)CC1 | inconclusive: 100 µM [inhibitor, single point] | –
Cc1cc(N2C(=O)C(O)=C(C(=O)c3ccco3)C2c2ccc([N+](=O)[O-])cc2)no1 (stereo not drawn) | inconclusive: 79.4 µM [inhibitor, single point] | –
C=CCOc1ccccc1CNc1ccc2c(c1)OCCO2 | active: 70.8 µM | –
Cc1cccc(C)c1OCC(N)C(C)C (stereo not drawn) | active: 70.8 µM | –
CC(=O)c1cc(-c2ccccc2)n(CC(=O)N2CCC(C)CC2)c1C | active: 50.1 µM | –
N#CC1=C2N=C(N)c3ccccc3N2C2=C(C(=O)CCC2)C1c1ccc(Cl)cc1 (stereo not drawn) | inconclusive: 44.7 µM [inhibitor, partial curve] | –
Clc1cccc(CN2CCc3c([nH]c4ccccc34)C2)c1 | active: 50.1 µM | –
COc1ccc(C)cc1NC(=O)COC(C)=O | – | inactive: -2.97%
CCn1c(=O)n(CC)c2cc(N3CCCC3)c(NC(=O)c3ccc(F)cc3)cc21 | inconclusive: 31.6 µM [inhibitor, single point] | –
COC(=O)c1ccccc1NC(=O)COC(=O)/C=C/c1ccco1 | inconclusive: 50.1 µM [inhibitor, partial curve] | –
COc1ccc(C(Nc2ccccn2)c2c(NC(=O)c3ccco3)sc(C)c2C)cc1OC (stereo not drawn) | inconclusive: 44.7 µM [inhibitor, partial curve] | –
CCOC(=O)c1c(CC(C)C)csc1/N=C/C1=C(O)CCCC1=O | inconclusive: 89.1 µM [inhibitor, single point] | –
CC(C)(C)c1nc(S(=O)(=O)c2ccc(Cl)cc2)c(N2CCOCC2)o1 | – | inactive: 4.66%
O=C1CC(c2ccco2)Cc2nc(N3CCc4ccccc4C3)ncc21 (stereo not drawn) | inconclusive: 70.8 µM [inhibitor, single point] | –
COc1ccc(C(=O)C(c2ccccc2)N2CCOCC2)cc1 (stereo not drawn) | inconclusive: 89.1 µM [inhibitor, single point] | –

SMILES | Potency | activity change, negative = inhibition
C#CCOCCOCCOCCNc1nc(N2CCN(C(=O)[C@H](C(C)C)n3cc(CCO)nn3)CC2)nc(N2CCN(C(=O)[C@H](CCCCN)n3cc(CCCC)nn3)CC2)n1 | inconclusive: 79.4 µM [inhibitor, single point] | –
CCOc1ccc(NC(=O)CN2CCN(CC(=O)Nc3ccc(F)cc3)CC2)cc1 | – | inactive: 1.25%
COc1cccc(-c2cc(C(=O)NCCCN3CCOCC3)no2)c1 | – | inactive: 1.08%
O=C(Nc1nc2n(n1)C(c1ccccc1)C=C(c1ccccc1)N2)c1ccccc1 (stereo not drawn) | active: 20 µM | –
Cc1ccc(-n2c(N)c(C(N)=O)sc2=S)c(C)c1 | inconclusive: 56.2 µM [inhibitor, partial curve] | –
COc1ccc(CCNC(=O)c2cc3c(C)nccc3[nH]c2=O)cc1OC | inconclusive: 44.7 µM [inhibitor, partial curve] | –
CCOC(=O)c1c(NC(=O)CSc2ncnc3ccccc23)sc(C)c1C | – | inactive: 8.34%
Cc1cccc(CN2C(=O)c3ccccc3Sc3ccc(C(=O)NCCN4CCOCC4)cc32)c1 | inconclusive: 79.4 µM [inhibitor, single point] | –
Cc1cc(C)n(CCNC(=O)CC2C(=O)NCCN2Cc2ccccc2C(F)(F)F)n1 (stereo not drawn) | – | inactive: -1.25%
N#CCc1nc2ccc(S(=O)(=O)N3CCOCC3)cc2s1 | – | inactive: -20.5%
CN(C)c1ccc(NC(=O)c2ccc3nc[nH]c3c2)cc1 | active: 44.7 µM | –
COc1ccc(C2=C(C(C)=O)Sc3nnc(-c4ccc(Cl)cc4)n3N2C(C)=O)cc1OC | – | inactive: -17.5%
Brc1ccccc1C1CC(c2ccccc2)=Nc2ccccc2N1 (stereo not drawn) | inconclusive: 79.4 µM [inhibitor, single point] | –
C=CCn1c(N)c(C(=O)NCc2cccnc2)sc1=S | – | inactive: -27.5%
COc1cccc(C(=O)NCC2CCCN(C(=O)c3ccc(C=O)cc3)C2)c1OC (stereo not drawn) | – | inactive: 0.932%
Cc1cc(S(=O)(=O)N(Cc2ccccn2)Cc2ccco2)ccc1-n1cnnn1 | inconclusive: 89.1 µM [inhibitor, single point] | –
CC(C)Cn1c(=O)c2c(nc3n2CCCN3CCc2ccccc2)n(C)c1=O | inconclusive: 50.1 µM [inhibitor, partial curve] | –
Fc1ccc(C(CCNCc2ccccn2)c2ccc(Cl)cc2)cc1 (stereo not drawn) | inconclusive: 39.8 µM [inhibitor, partial curve, poor fit] | –
CN1CCc2c(OCC(=O)N3CCCc4ccccc43)cccc2C1=O | inconclusive: 79.4 µM [inhibitor, single point] | –
CCc1cc(-c2n[nH]c(C)c2-c2ccccc2Cl)c(O)cc1OC | inconclusive: 25.1 µM [inhibitor, partial curve] | –
CSc1nc(-c2ccccc2Cl)nc2c1Cc1c(CO)cnc(C)c1O2 | – | inactive: -8.33%
COc1ccc(CNC(=O)Cn2c(=O)c3cccn3c3ccccc32)cc1 | – | inactive: -15.3%
COc1ccc(CN2CCc3c([nH]c4ccccc34)C2)cc1Br | active: 14.1 µM | –
CCc1cc2c3c(c1)C(C)CC(C)(C)N3C(=O)C2=O (stereo not drawn) | inconclusive: 44.7 µM [inhibitor, partial curve] | –
Cc1ccc(OCC(=O)N2N=C(c3ccc(Cl)cc3)CC2c2ccco2)c([N+](=O)[O-])n1 (stereo not drawn) | inconclusive: 31.6 µM [inhibitor, partial curve] | –

SMILES | Potency | activity change, negative = inhibition
CCCOc1ccc(CNC(=O)c2oc3ccc4c(c3c2C)C(=O)CC(C)(CC)O4)cc1 (stereo not drawn) | – | inactive: -6.56%
CCOC(=O)C1CCN(CC(=O)N2C(C)CCCC2C)CC1 (stereo not drawn) | active: 50.1 µM | –
Cc1cccc(OCCCCNCc2ccccc2)c1 | active: 50.1 µM | –
CCCCC1=CC2=CC(=O)C(C)(OC(=O)CC)C(=O)C2=CN1Cc1ccc(OC)cc1 (stereo not drawn) | inconclusive: 70.8 µM [inhibitor, single point] | –
COc1cc(C(=O)N2CCN(C3CCCCC3)CC2)cc(OC)c1OC | inconclusive: 89.1 µM [inhibitor, single point] | –
Cc1sc(NC(=O)C2CC=CCC2C(=O)O)c(C(=O)OC(C)C)c1C (stereo not drawn) | inconclusive: 89.1 µM [inhibitor, single point] | –
Cc1ccc(C)n1-c1sc2c(c1C(=O)O)CCCC2 | inconclusive: 79.4 µM [inhibitor, single point] | –
COC(=O)CCC(=O)OC1(C)C(=O)C=C2C=C(C3CC3)N(C(CO)CO)C=C2C1=O (stereo not drawn) | – | inactive: -4.5%
CCCc1ccc(S(=O)(=O)N2CCC(c3nnnn3-c3ccc(OC)cc3)CC2)cc1 | – | inactive: 5.92%
Brc1ccc(-c2c(-c3ccsc3)sc3ccccc23)cn1 | – | inactive: -4.04%
O=C(C1CCN(S(=O)(=O)c2ccccc2)CC1)N1CCCCC1 | – | inactive: -10.6%
O=C(N/N=C\c1ccc(-c2ccccc2[N+](=O)[O-])o1)C1COc2cc3ccccc3cc2O1 (stereo not drawn) | inconclusive: 3.98 µM [inhibitor, full curve, poor fit] | –
Cc1ccc(S(=O)(=O)N2C(=O)CCC2C(=O)Nn2cnnc2)cc1 (stereo not drawn) | inconclusive: 89.1 µM [inhibitor, single point] | –
CC(=O)NC(=S)Nc1ccc(NC(=O)COc2ccc(C(C)C)cc2)cc1 | inconclusive: 1.26 µM [inhibitor, full curve, poor fit] | –
O=C(Nc1ccc(N2CCN(C(=O)c3ccccc3)CC2)cc1)c1cc([N+](=O)[O-])ccc1N1CCOCC1 | inconclusive: 44.7 µM [inhibitor, partial curve] | –
Cc1ccc(NS(=O)(=O)c2ccc(-c3cnc(C4CC4)o3)cc2)cc1N(C)C | inconclusive: 44.7 µM [inhibitor, partial curve] | –
CCOC(=O)NC(=O)/C(C#N)=C(/C)N(C)C | – | inactive: -4.6%
CC(C)Oc1ccc(C(=O)N2CCC(c3nc4ccccc4o3)CC2)cc1 | inconclusive: 89.1 µM [inhibitor, single point] | –
O=C1CC(c2ccccc2)n2nc(NC(=O)c3ccccn3)nc2N1 (stereo not drawn) | – | inactive: -107%
CN(CC(=O)Nc1cccc(F)c1)C(=O)c1cc(-c2ccco2)nc2ccccc12 | active: 50.1 µM | –
Nc1nc(NCc2c(F)cccc2Cl)nn1-c1ccccc1 | inconclusive: 89.1 µM [inhibitor, single point] | –
COc1cc(NC(=O)CSc2ncc3c(n2)-c2ccc(Cl)cc2N(Cc2ccccc2)S3(=O)=O)cc(OC)c1 | – | inactive: -31.6%
COc1ccccc1C(CCN(Cc1ccccc1)C(C)=O)c1ccco1 (stereo not drawn) | inconclusive: 89.1 µM [inhibitor, single point] | –
